58 compounds from PubChem BioAssay AID360 (National Center for Advancing Translational Sciences (NCATS), 2006) can be followed below.

Out of some 48,000 compounds screened, about 550 (1.1%) were called active. Inconclusive results (about 4%) are left out. Rule as the data show it: active = potency below about 15 µM; inconclusive = mostly about 16 µM to 33 µM; inactive = weaker than that. The list shows a part of the results. Some results are limits rather than exact numbers.
Potency is read from the fitted curve at half-maximal effect.

Chain of UniProt P04062 (P04062 whole entry, looked up): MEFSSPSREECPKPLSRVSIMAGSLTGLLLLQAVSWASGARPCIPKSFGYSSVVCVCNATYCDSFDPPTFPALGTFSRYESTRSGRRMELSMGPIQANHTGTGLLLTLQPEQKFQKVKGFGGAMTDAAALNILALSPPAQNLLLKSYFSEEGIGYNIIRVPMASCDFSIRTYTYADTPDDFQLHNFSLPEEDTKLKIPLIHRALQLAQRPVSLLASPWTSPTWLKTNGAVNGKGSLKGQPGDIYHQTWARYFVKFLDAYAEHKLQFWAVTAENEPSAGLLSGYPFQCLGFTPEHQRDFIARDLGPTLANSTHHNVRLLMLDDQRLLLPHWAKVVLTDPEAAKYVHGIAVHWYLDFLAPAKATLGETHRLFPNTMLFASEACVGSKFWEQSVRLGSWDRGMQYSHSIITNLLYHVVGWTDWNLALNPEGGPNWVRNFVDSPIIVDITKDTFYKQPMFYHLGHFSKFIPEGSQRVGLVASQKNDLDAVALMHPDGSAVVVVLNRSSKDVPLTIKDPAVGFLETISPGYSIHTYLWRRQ

The target of the test is Lysosomal acid glucosylceramidase (Homo sapiens) (UniProt P04062). Put plainly: Glucocerebrosidase.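 Also: the screen sought inhibitors.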 To be noted: purified enzyme, resorufin glucoside fluorescence (screen aimed at inhibitors), 20 min. The procedure, abridged:
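Wild-type enzyme at 0.2 nM final in 50mM citric acid/KH2PO4, 10mM sodium taurocholate, 0.01% tween-20, pH 5.9, with resorufin beta-D-glucopyranoside at 30 uM final. Compounds titrated, 20 min at RT, red fluorescence read; AC50 from titration.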
Regarding `COc1ccc(NC(=O)CCNC(C)=O)cc1NS(=O)(=O)c1ccc(F)cc1`, the Potency is inactive: > 76.9 µM.

In the case of `NS(=O)(=O)c1ccc(CCNc2cc(=O)n(Cc3ccc(F)cc3)c(=O)[nH]2)cc1`, the Potency was inactive: > 76.9 µM.

For `COc1ccc(OC)c(S(=O)(=O)N2Cc3ccccc3CC2C(=O)Nc2nccs2)c1` (stereo not drawn), the Potency was inactive: > 76.9 µM.

As for `Cc1cc(C)n2nc(CCc3nc4nc(C)cc(C)n4n3)nc2n1`, the Potency was inactive: > 76.9 µM.

Turning to `Cc1occc1C(=O)Nc1cc(C(C)(C)C)on1`, the Potency is inactive: > 76.9 µM.

On to `c1ccc(C2=NCCCN2)cc1`, for which the Potency is inactive: > 76.9 µM.

In the case of `O=C(c1ccccc1Br)N1CCN(c2ccccc2)CC1`, the Potency is inactive: > 76.9 µM.

With `O=C(O)C1C2C=CC(C2)C1C(=O)OCc1ccccc1` (stereo not drawn), the Potency is inactive: > 76.9 µM.

`O=C(Nc1ccccn1)C1CCN(S(=O)(=O)c2cccc3nonc23)CC1`: the Potency is inactive: > 76.9 µM.

On to `CCOC(=O)CN(C(=O)CSc1nnc(-c2ccncc2)n1CCCN(C)C)c1ccccc1`, for which the Potency was inactive: > 76.9 µM.

Turning to `Cc1ccc(S(=O)(=O)N(C)CC(=O)NC2CCCC2)cc1`, the Potency is inactive: > 76.9 µM.

Take `CC(=O)c1c(C)[nH]c(C(=O)NCCCN2CCCC2)c1C`: the Potency is inactive: > 76.9 µM.

`CC(=O)Nc1cc2c(cc1NC(=O)Cn1nc(-c3ccccc3F)ccc1=O)OCCO2`: the Potency was inactive: > 76.9 µM.

For `CC(C)Cn1c2c(c(O)c(C(=O)Nc3nccs3)c1=O)CCCC2`, the Potency is inactive: > 76.9 µM.

`O=C(Nc1cc(C(=O)N2CCCC2)ccc1N1CCCC1)c1ccccc1F`: the Potency was inactive: > 76.9 µM.

For `NC(=O)c1nsnc1-c1ccccc1O`, the Potency is inactive: > 76.9 µM.

For `COc1ccc(C)cc1NC(=O)c1cc2c(C)nc3ccccc3c2o1`, the Potency is inactive: > 76.9 µM.

Turning to `Cc1nc(N2CCN(Cc3ccc4c(c3)OCO4)CC2)nc2c1C(=O)CC(c1ccco1)C2` (stereo not drawn), the Potency is inactive: > 76.9 µM.

With `Cc1cc(C(=O)CSc2n[nH]c(N)n2)c(C)n1-c1cc(F)ccc1F`, the Potency result is “inactive”.

Turning to `CCOC(=O)C1CCCN(C(=O)C2CCN(S(=O)(=O)CC)CC2)C1` (stereo not drawn), the Potency is inactive: > 76.9 µM.

On to `Oc1ccc(C=Nc2cccc3ncccc23)c(O)c1`, for which the Potency is inactive: > 76.9 µM.

With `O=C(NCCc1ccncc1)Nc1ccccc1`, the Potency was inactive: > 76.9 µM.

Regarding `Cc1ccc(NC(=O)CC2SC3=NCCN3C2=O)cc1` (stereo not drawn), the Potency was inactive: > 76.9 µM.

With `O=C(CN(c1ccc(F)cc1)S(=O)(=O)c1ccc2c(c1)OCCO2)NCC1CCCO1` (stereo not drawn), the Potency is inactive: > 76.9 µM.

Turning to `CCCc1cc(=O)oc2cc(C)cc(OCC(=O)O)c12`, the Potency was inactive: > 76.9 µM.

Regarding `CC1CCc2c(nc3ncnn3c2N2CCN(c3ccccc3F)CC2)C1` (stereo not drawn), the Potency is inactive: > 76.9 µM.

Turning to `CCC(C)(C)n1nnnc1C(c1cccc(C#N)c1)N1CCN(c2cc(C)ccc2C)CC1` (stereo not drawn), the Potency is inactive: > 76.9 µM.

In the case of `COc1nc2ccc(C)cc2cc1-c1noc(-c2cccnc2)n1`, the Potency was inactive: > 76.9 µM.

`CC1CCCC(NC(=O)C2CCN(S(=O)(=O)N3CCC4(CC3)OCCO4)CC2)C1C` (stereo not drawn): the Potency was active: 14 µM.

On to `ON1C2CCCCC2N(O)C1c1c(F)c(F)c(F)c(F)c1F` (stereo not drawn), for which the Potency is inactive: > 76.9 µM.

In the case of `NCCCCCc1nnc(SCC(=O)Nc2cccc(Cl)c2)o1`, the Potency was inactive: > 76.9 µM.

Consider `Cc1cccc(NC(=O)CSc2nnc(Cn3nnc(-c4ccccc4)n3)n2-c2ccccc2)c1`, for which the Potency was inactive: > 76.9 µM.

With `Cn1c(=O)c(-c2ccccc2)nn2c3ccccc3nc12`, the Potency is inactive: > 76.9 µM.

`CCCCC(C(=O)O)C(C)CC(=O)Nc1ccn(-c2ccccc2)n1` (stereo not drawn): the Potency was inactive: > 76.9 µM.

As for `O=c1cc2n(c(=O)[nH]1)CCC1=C2CCCC1`, the Potency was inactive: > 76.9 µM.

Consider `O=C(c1ccccc1)c1cccn1CC(=O)N1CCN(c2ccc(F)cc2)CC1`, for which the Potency is inactive: > 76.9 µM.

Turning to `COc1ccc(-c2nnc3n2N=C(c2cccc(Br)c2)CS3)cc1OC`, the Potency was inactive: > 76.9 µM.

As for `O=C(CCNS(=O)(=O)c1cccc2nsnc12)N1CCN(c2ccccn2)CC1`, the Potency was inactive: > 76.9 µM.

For `CCc1ccc(N2CC(C(=O)NC3=NCCS3)CC2=O)cc1` (stereo not drawn), the Potency is inactive: > 76.9 µM.

Consider `CCOC(=O)Cn1nnc(-c2ccc(OCC(C)C)cc2)n1`, for which the Potency is inactive: > 76.9 µM.

As to `CCOc1ccc(C(=O)N(CN2CCCC2=O)c2ccc(C)cc2)cc1`, the Potency is inactive: > 76.9 µM.

As to `Cn1c(=O)c2c(O)cc(=O)[nH]c2n(-c2ccccc2)c1=O`, the Potency is inactive: > 76.9 µM.

With `COc1cccc(NC(=O)C2C3CC4OC(=O)C2C4C3)c1` (stereo not drawn), the Potency was inactive: > 76.9 µM.

`O=C(Nc1nnc(Cc2ccccc2)s1)c1cccs1`: the Potency was inactive: > 76.9 µM.

On to `Cc1cc(C)n(C(=O)CNC(=O)Cc2ccccc2)n1`, for which the Potency was inactive: > 76.9 µM.

Turning to `O=C1CN(CC(=O)N2CCCCC2)c2ccccc2O1`, the Potency was inactive: > 76.9 µM.

As for `COc1ccc(S(=O)(=O)NCC(c2cccnc2)N2CCN(c3ccccc3OC)CC2)cc1C` (stereo not drawn), the Potency is inactive: > 76.9 µM.

Take `CCO/C=C/C(O)(CNC(=O)COc1ccccc1F)C(F)(F)F` (stereo not drawn): the Potency is inactive: > 76.9 µM.

Turning to `Cc1[nH]c(=O)[nH]c(=O)c1NC(=O)CSc1ncccc1-c1nc2ccccc2[nH]1`, the Potency was inactive: > 76.9 µM.

On to `COc1cccc(C(=O)Nc2c(C)n[nH]c2C)c1`, for which the Potency was inactive: > 76.9 µM.

With `N#Cc1ccccc1OCC(=O)Nc1c(C(=O)C2CC2)oc2ccccc12`, the Potency is inactive: > 76.9 µM.

`COc1cccc(CNC(=O)C2CCN(c3cnccn3)CC2)c1`: the Potency is inactive: > 76.9 µM.

In the case of `O=C(CSc1nc2c(c(=O)n1-c1ccc(Cl)cc1)SCC2)NCc1ccco1`, the Potency was inactive: > 76.9 µM.

For the compound `Cc1ccccc1-c1nnn(CC(=O)NCc2ccc3c(c2)OCO3)n1`, the Potency was inactive: > 76.9 µM.

On to `Cc1cc(C)n(-c2nc3ccccc3nc2N2CCCCCC2)n1`, for which the Potency was inactive: > 76.9 µM.

Turning to `O=c1cc(N2CCC3(CC2)OCCO3)[nH]c(=O)n1-c1ccc(Cl)cc1`, the Potency is inactive: > 76.9 µM.

With `COc1ccc(OC)c(NC(=O)CSc2ccccc2)c1`, the Potency is inactive: > 76.9 µM.

Regarding `COCCN(Cc1cc2cccc(C)c2n2nnnc12)C(=O)C(F)(F)F`, the Potency was inactive: > 76.9 µM.
